Out of some 310,000 compounds screened, about 14,000 (4.5%) showed an effect of 50% or more. The effect is printed as a negative number. The list shows a part of the results.
Target: human ether-à-go-go-related gene (hERG) potassium channel (human, UniProt Q12809)
Assay: primary screen, population patch clamp on CHO cells stably expressing hERG
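Note: peak tail current of the secondary pulse compared with the same well before compound.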

Sequence of human ether-à-go-go-related gene (hERG) potassium channel (Q12809 whole entry, looked up): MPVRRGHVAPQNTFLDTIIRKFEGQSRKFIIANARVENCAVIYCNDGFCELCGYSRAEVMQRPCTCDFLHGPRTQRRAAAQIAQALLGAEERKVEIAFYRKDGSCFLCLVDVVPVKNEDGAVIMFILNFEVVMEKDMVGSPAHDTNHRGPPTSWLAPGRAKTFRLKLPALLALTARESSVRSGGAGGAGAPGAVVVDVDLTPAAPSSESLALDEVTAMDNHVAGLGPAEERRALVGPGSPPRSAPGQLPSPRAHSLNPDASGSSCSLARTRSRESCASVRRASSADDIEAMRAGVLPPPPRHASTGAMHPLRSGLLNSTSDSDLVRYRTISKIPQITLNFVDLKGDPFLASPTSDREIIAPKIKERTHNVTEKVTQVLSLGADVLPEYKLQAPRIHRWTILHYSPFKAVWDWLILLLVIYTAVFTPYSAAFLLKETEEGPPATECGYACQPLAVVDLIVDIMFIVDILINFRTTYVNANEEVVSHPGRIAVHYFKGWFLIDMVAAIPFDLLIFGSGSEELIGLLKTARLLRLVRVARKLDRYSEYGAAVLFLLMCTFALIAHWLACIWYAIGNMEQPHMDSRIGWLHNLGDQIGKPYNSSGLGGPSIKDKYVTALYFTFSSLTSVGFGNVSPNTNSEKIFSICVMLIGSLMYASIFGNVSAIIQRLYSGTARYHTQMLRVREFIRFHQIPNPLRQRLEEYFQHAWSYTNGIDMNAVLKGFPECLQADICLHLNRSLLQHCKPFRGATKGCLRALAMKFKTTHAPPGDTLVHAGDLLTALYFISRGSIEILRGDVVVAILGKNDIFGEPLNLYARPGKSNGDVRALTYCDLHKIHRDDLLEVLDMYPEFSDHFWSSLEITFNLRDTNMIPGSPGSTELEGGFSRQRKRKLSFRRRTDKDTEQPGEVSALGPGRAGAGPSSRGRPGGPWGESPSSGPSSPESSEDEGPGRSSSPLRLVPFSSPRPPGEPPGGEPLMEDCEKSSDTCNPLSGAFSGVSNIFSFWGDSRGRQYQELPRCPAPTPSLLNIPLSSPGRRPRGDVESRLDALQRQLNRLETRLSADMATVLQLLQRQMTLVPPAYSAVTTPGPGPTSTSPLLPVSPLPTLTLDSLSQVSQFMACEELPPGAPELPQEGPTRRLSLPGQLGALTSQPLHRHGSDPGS

SMILES | hERG current change (%, negative = inhibition) at 10uM [%]
Nc1ccc(-c2nc3cc([N+](=O)[O-])ccc3o2)cc1 | 14.4
CCOc1ccc(C(=O)COC(C)=O)cc1 | 6.75
CSc1ncc(Cl)c(C(=O)Nc2nnc(SC/C=C/c3ccccc3)s2)n1 | -30
COC(=O)NCCOC(=O)N(O)c1ccc(Br)cc1 | 14.7
COc1ccc(C2COc3cc(O)ccc3C2)c(OC)c1O (stereo not drawn) | -13.1
O=C(Cc1c(F)cccc1Cl)Nc1ccon1 | -0.744
CC(=O)Nc1ccc(NC(=S)NC(=O)c2ccc([N+](=O)[O-])cc2)cc1 | 11.3
CCOC(=O)c1c(C)cc(=O)oc1C | 7.92
COc1ccc(CNC(=O)COC(=O)c2ccc(Br)cc2)cc1 | 17.3
CCOC(=O)C1CCCN(C(=O)C(=O)Nc2ccc3nc4n(c(=O)c3c2)CCCCC4)C1 (stereo not drawn) | -1.21
CCOc1ccc(C2=Nc3ccccc3C(c3ccc(N4CCOCC4)cc3)=NN2)cc1 | -5.89
Cc1onc(-c2ccccc2Cl)c1C(=O)Nc1cccc2nsnc12 | 8.65
C/C(=N\NC(=O)Cc1c(C)[nH][nH]c1=O)c1ccc(Cl)c(Cl)c1 | 11.9
O=c1c2c(nc3c(-c4cccc(Br)c4)c[nH]n13)CCCC2 | 6.12
O=C(N/N=C\C=C\c1ccc2c(c1)OCO2)c1ccc(F)cc1 | 1.32
COc1ccc(C(C)=O)cc1CSc1nc(C)cc(C)n1 | 5.31
Cc1ccc(C2/C(=C(\O)c3ccc4c(c3)OCCO4)C(=O)C(=O)N2Cc2cccnc2)cc1 (stereo not drawn) | 9.66
CC1CCN(C(=O)COC(=O)c2cccc(NS(=O)(=O)c3ccccc3)c2)CC1 | -18.5
COC(=O)[C@]1(C)N[C@H](c2ccc(-c3ccc(F)cc3)cc2)[C@@H]2C(=O)N(C)C(=O)[C@@H]21.O=C(O)C(F)(F)F | -1.3
Cc1c(C)n(Cc2ccc(Cl)cc2)c2ccc(C(=O)NCCCN3CCOCC3)cc12 | -16.9
CC(C)c1ccc(NC(=O)[C@@H](NC(=O)N2CC(=O)Nc3ccccc32)C(C)C)cc1 | 6.86
CC(=O)Nc1ccc(S(=O)(=O)Nc2ccc(Cl)nn2)cc1 | 2.51

SMILES | hERG current change (%, negative = inhibition) at 10uM [%]
Cc1cccc(-c2nnc(SCC(=O)NC3CC3)n2C)c1 | 15.7
O=C(COc1ccccc1)NCCc1cn2ccsc2n1 | 4.18
CC(C)(C)OC(=O)N1CCC(c2c(C(=O)N3CCN(C(=O)c4ccco4)CC3)cnn2-c2cccc(Cl)c2)CC1 | -65.6
CC(OC(=O)CN1C(=O)COc2ccccc21)C(=O)NCc1ccc(F)cc1 (stereo not drawn) | -5.95
O=C(NC1CCCCCC1)c1cc(S(=O)(=O)N2CCOCC2)ccc1N1CCCCC1 | -26.3
NC(=O)COc1cc2oc(=O)c3c(c2cc1Cl)CCCC3 | 12
O=C(/C=C/Nc1ccccc1F)c1ccc(Br)cc1 | 0.681
C=CCn1c(SCC(=O)N2CCN(CCO)CC2)nc2sc3c(c2c1=O)CCC3 | -20.9
Cc1ccc2c(c1)N(C(=O)CCC(=O)NCCCN1CCC(Cc3ccccc3)CC1)CCO2 | -77.1
CC(=NCCC(c1ccccc1)c1ccccc1)c1c(O)n(C)c(=O)n(C)c1=O | -16.7
Cc1ccc(C2C3=C(CCCC3=O)Nc3c2c(C)nn3-c2ccccn2)o1 (stereo not drawn) | 1.07
CCOc1ccc(N2CC(C(=O)N3CCc4ccccc4C3)CC2=O)cc1 (stereo not drawn) | -75
Cn1nc(-c2ccc(Cl)cc2)c2cc(C(=O)NC3CC3)sc21 | -1.54
CN(C(=O)/C=C/c1ccc(F)cc1)C1CCCCC1 | -22.6
COc1ccc(CCN=Cc2ccc(O)cc2)cc1OC | 19
COc1ccccc1NC(=O)N1CCC(NC(=O)C2CCCCC2)CC1 | 5.27
NS(=O)(=O)c1ccc(NC(=O)COC(=O)COc2ccc(Br)cc2)cc1 | 9.21
CCN(CC(=O)Nc1ccc(OC)cc1)C(=O)c1cc(S(=O)(=O)N2CCOCC2)ccc1N1CCCC1 | -13.2
COc1cc(-c2nnc(SCC(=O)NC3CCS(=O)(=O)C3)o2)cc(OC)c1OC (stereo not drawn) | 12.7
Cc1ccc2oc(=O)c3cnn(CC(=O)N4CCCc5ccccc54)c3c2c1 | -1.98
COc1ccc2[nH]c(=O)c(CN(Cc3ccc4c(c3)OCO4)C(C)=O)cc2c1 | -14.8
NC(=O)CSc1nnc(-c2cnccn2)n1-c1ccccc1 | 4.66

SMILES | hERG current change (%, negative = inhibition) at 10uM [%]
Cc1c(O)c(CN2CCCCC2)cc2c1oc(=O)c1ccccc12 | 7.11
O=C1NC2=C(CCc3ccccc32)C(c2ccc(Br)cc2)N1 (stereo not drawn) | -56.3
Cc1sc2ncnc(SCC(=O)NNC(=O)COc3cccc4ccccc34)c2c1C | 3.43
CCOc1ccc(NC(=S)N2CCN(S(=O)(=O)c3ccccc3)CC2)cc1 | -31.6
CC(=O)NC(=S)Nc1ccc(N2CCOCC2)c(S(=O)(=O)Nc2cc(Cl)ccc2Cl)c1 | 16
COc1ccc(OC)c(NC(=O)c2c(NC(=O)CCC(=O)O)sc3c2CCCCC3)c1 | 18.2
COc1cccc(OC)c1OCCCCN1CCC(Cc2ccccc2)CC1.O=C(O)C(=O)O | -81.9
COc1ccccc1Nc1nc(-c2sc(N)nc2C)cs1 | 6.95
COCCCNC(=O)c1cc(-c2cccnc2)nc2ccccc12 | 16.6
O=[N+]([O-])c1ccccc1/C=N/n1c(C(F)(F)F)n[nH]c1=S | 11
Cn1cc(/C=C/C(=O)N2CCCC(C(=O)c3ccc(C(F)(F)F)cc3)C2)cn1 (stereo not drawn) | -15.9
CC(C)(C)OC(=O)N1CCC(CC2CC(c3cccc(Br)c3)=NO2)(C(=O)O)CC1 (stereo not drawn) | 4.19
CCCNC(=O)c1ccc(COc2ccc(CCC)cc2OC)o1 | -38.6
C(#CCN1CCC(Cc2ccccc2)CC1)COCCOCc1ccccc1 | -11.2
COC(=O)c1cn(CC(=O)Nc2ccc(OC)cc2)c2ccccc12 | 8.2
O=C(O)CNC(=O)c1ccc(NC(=O)/C(=C/c2ccccc2)NC(=O)c2ccccc2)cc1 | 31.5
CNC(=O)COC(=O)c1ccccc1Oc1ccccc1 | -5.63
O=C(NC1CCCCC1)c1cccnc1Sc1ccccc1 | 22.6
COc1cc(NC(=O)c2ccc3c(c2)OCCO3)ccc1NC(=O)c1ccco1 | 18.3
CC(C)CNC(=O)C(=O)NCC1OCCCN1S(=O)(=O)c1cccs1 (stereo not drawn) | 6.9
CCn1ncc(S(=O)(=O)Nc2cc(Cl)ccc2C)c1C | -5.15
CN1C(=O)c2ccc(NC(=O)c3ccc(Cl)cc3Cl)cc2C1=O | 3.42

SMILES | hERG current change (%, negative = inhibition) at 10uM [%]
O=C(CN1CCOc2ccccc21)NCc1ccc(Cl)cc1 | -11.7
Cc1ccc(OCCC(=O)OCC(=O)N2c3ccccc3NC(=O)C2(C)C)cc1 | -22.5
COc1ccc(OC)c(S(=O)(=O)Nc2cccc3ccccc23)c1 | 24.2
COc1ccc(-c2nc3ccccc3s2)cc1NC(C)=O | 6.39
OC(CC1CC12c1ccccc1-c1ncccc12)(c1ccccc1)c1ccccc1 (stereo not drawn) | -4.74
CN(C(=O)COc1ccc2ccc(=O)oc2c1)C1CCS(=O)(=O)C1 (stereo not drawn) | 19.8
O=C(c1cnn2c(C(F)F)cc(-c3ccccc3)nc12)N1CCN(Cc2ccc3c(c2)OCO3)CC1 | -21.3
CCOC(=O)Cc1csc(NS(=O)(=O)c2cccc([N+](=O)[O-])c2)n1 | 13.1
CC(C)c1cc(C(=O)N/N=C/c2ccco2)n[nH]1 | -4.15
Cc1ccc(CN2CCN(/N=C/c3cc(Br)cc(Br)c3O)CC2)c(C)c1 | 0.433
CC(=O)N1CCC(C(=O)N2CCN(S(=O)(=O)c3cccs3)CC2)CC1 | 14.3
CCCOc1ccc(C(=O)CCC(=O)OCC(=O)Nc2ccc(OCC)cc2)cc1 | 7.34
O=C(O)Cc1ccc(C(=O)CSc2ccccc2)s1 | 25.4
O=C(CN1C(=O)NC2(CCCC2)C1=O)OCCOc1cccc(Br)c1 | 7.92
S=C(c1ccc2c(c1)OCO2)N1CCOCC1 | 14.5
COC(=O)C1=C(C)N(c2ccc(C)cc2)/C(=C/c2cccs2)C1=O | 5.45
CCOC(=O)CCn1cnc2ccc([N+](=O)[O-])cc2c1=O | -8.28
CC(C)CCNC(=O)c1c(CSc2ccccc2)noc1C(=O)NCc1ccccc1 | 7.2
Cc1cccc(NCC(=O)N/N=C\c2cccc(Oc3ccccc3)c2)c1 | 20.1
Cc1ccc(SCC(=O)Nc2ccc(N3CCN(C)CC3)c(F)c2)c(C)c1 | -72
Cc1cc(N(CN2CCCC2=O)C(=O)c2ccccc2)no1 | 16.5
